# Experimental data: the supplement of paper PMC11417369
# ± gives the standard deviation of the averaged measurements. This is one part of the list.
# Test system: PfAP2-LT AP2 domain (GST-tagged)
# Assay: gcPBM binding intensity (ln(normalized median fluorescence intensity)); higher = stronger DNA binding
# How it was run: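 GST-tagged P. falciparum DNA-binding domains, expressed in E. coli (about 25 μg on average), were applied for 1 h to an Agilent 4 × 180k array of primer-extended double-stranded 36-bp intergenic genomic probes plus negative controls. The binding buffer was 1× PBS with 1% milk, 0.2 mg/ml BSA, 0.5% salmon testes DNA and 0.03% Triton X-100. Bound protein was detected with Alexa488 anti-GST antibody and scanned at 488 nm. Binding intensity is the highest Masliner-normalised natural-log median intensity across replicate spots of either probe orientation.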
row,Sequence,gcPBM binding intensity (ln)
1,ATAAATTCATATATGAGTACTAAAAATATCTTTTTC [XGTACX_site5541],8.7 ± 0.4
2,TATTAATACAGACACACACACACACCCAATAAAATA [CACACA_site243],10.29 ± 0.05
3,AAAAACTATTGTAGGACACACAAAATTCCAATTTTA [CACACA_site1701],8.87 ± 0.45
4,ATATATATAAAACACACACACACATGTTTTAAAACT [CACACA_site78],9.76 ± 0.18
5,AAGTAATTTATGCATACACACATATATAAATATGTA [CACACA_site7813],8.96 ± 0.35
6,CACAAAAAGAAACACACACACATATATATTTATTAT [CACACA_site3646],9.76 ± 0.19
7,TATATATATATTTATACACACATTAGTGTATACATG [CACACA_site2950],9.23 ± 0.34
8,AAATAAATGTTATGCATACACACTTTATACCTATTT [CACACA_site3779],9.1 ± 0.42
9,ATATATATTAGGTATTGTACTTATATGCATATAAGT [XGTACX_site2700],8.81 ± 0.28
10,AATGAATGAATTATTTTGCGCTTATTATAGGACGAA [XGTACX_negctrl_site218],8.74 ± 0.41
11,TCTTTTATGTTTGTTTTTCCCTTTTTTTATGTTCCC [CACACA_negctrl_site1722],8.81 ± 0.53
12,TTTTTTTATTATTAAAGTACTAAAAAATGAAAACTG [XGTACX_site6758],8.06 ± 0.29
13,TGGGAATAAAAACACACACACACACCGATATATATA [CACACA_site5875],10.1 ± 0.41
14,TATAATAAAAAATGTACACACATAAGAAAATTTAAT [CACACA_site2901],9.1 ± 0.41
15,GACTATTTTAATATTTTACACACCATGTAAAATATA [CACACA_site9050],8.82 ± 0.36
16,ACATAATAAAAAAAACGTACAAATAGGTTTTTCATA [XGTACX_site6645],8.85 ± 0.57
17,TATATATATATATACACACACACCGTCCGTGTTAAA [CACACA_site2979],9.83 ± 0.33
18,ATATATTAAAACCTAGTGCATTTGTACATATTTCAA,8.71 ± 0.41
19,AGGTTAAAACATATATATATATATATATATATATAT [XGTACX_negctrl_site333],10 ± 0.21
20,TTATACAGGACAATAGTGCACATAAATATATGTATA,9.04 ± 0.44
21,GCAGTCAAAAAGGAAAATATAAAAAAAGTATATGTG [GTGCAC_negctrl_site95],8.71 ± 0.47
22,TATTTACAAATAAAAAGTACATAAACTAATATCTTT [XGTACX_site2181],8.53 ± 0.43
23,ATCTGTACAGTTTTTGCACACATATAAATAAAAAAA [CACACA_site9198],8.98 ± 0.42

row,Sequence,gcPBM binding intensity (ln)
1,TTGTTTGTAAACAGATGTACATATAAAAATATATAT [XGTACX_site3370],8.72 ± 0.42
2,TATATTAGAAAGGATACACACATATATAAATATCTA [CACACA_site6411],8.85 ± 0.41
3,ATATATATATATATATGTACATATATTTGTAATGTC [XGTACX_site8074],9.83 ± 0.13
4,TTTATTATGTAAGCATGTACATGATGTATATATTTA [XGTACX_site5021],8.77 ± 0.45
5,ATTTTTTAAAATATTTGTACATATATAATGCATATA [XGTACX_site7026],8.62 ± 0.43
6,CACAGACACGGACACACACACACACCGATATATATA [CACACA_site4353],9.88 ± 0.24
7,TAAATACTTATATGTACACACATATAGATATATATT [CACACA_site2553],8.96 ± 0.33
8,ATATAAATAAATGTATGTACATATATTTATATGCAT [XGTACX_site4185],8.78 ± 0.33
9,GAAAAATTGAATTTGGGTACATATAAATATTATATT [XGTACX_site2363],8.53 ± 0.38
10,ATAAATATTAGCAGTTGTACAATAAATATATGTAAT [XGTACX_site2534],8.97 ± 0.43
11,TTCCCTATATAGAGCATGCACTATATTCAAATGATG,8.72 ± 0.42
12,TTAGATATAAAAGCATGTACTTGTATAAAATATATA [XGTACX_site8272],8.54 ± 0.49
13,TTATCAAATGAGTGTTGTACGTCTTTTGAAATACCA [XGTACX_site8804],8.49 ± 0.34
14,TCAGATCCATAGAAGGTGCAAATAACAAAAATACAA [GTGCAC_site9610],8.96 ± 0.54
15,TAATTTTTCTTATATAGTACACAAAAAGAAAATTAC [XGTACX_site6393],8.31 ± 0.35
16,AAAATGTTTTTATCCAGTACATAAATATATATATAT [XGTACX_site7398],8.78 ± 0.3
17,TATGAACACCCAAATACACACACTCAAAAAAAAAAA [CACACA_site5466],9.36 ± 0.4
18,CTTTATATATATTGCGTGCACATTTTTTTTTTTTTT,8.99 ± 0.53
19,CTATTTAAAATTTGAACACACATTATTTATTTTAAA [CACACA_site3114],8.42 ± 0.48
20,GAAATAATAAAATCGACACACAAAAAAAAAAAAAAA [CACACA_site3476],8.94 ± 0.48
21,AATAAATACAAAAATGTACACACATATATATATTTT [CACACA_site9167],9.02 ± 0.42
22,TCAATATATATAAGAAGTACATGTGAATGAAAAAAA [XGTACX_site1674],8.86 ± 0.54
23,TTCTGTATACGGTGTGCACACAATTAAAAAAAAAAA [CACACA_site1416],9.21 ± 0.54

row,Sequence,gcPBM binding intensity (ln)
1,AACATATAAAAATATGCACACACAGGAATACAAACA [CACACA_site8127],9.89 ± 0.45
2,TTAAATAACCTCAAGGATAAGAAAAAATTAAAAATT [CACACA_negctrl_site1336],8.46 ± 0.49
3,GTAAATATATATATATATATATATATATATATATAT [GTGCAC_negctrl_site239],9.81 ± 0.11
4,TTTATATACTATCAACGTACAAAAGTAATAAAAATA [XGTACX_site4343],8.66 ± 0.52
5,GGATTTTACCATAGCACACATATATGAATATTTTTC [CACACA_site1814],8.99 ± 0.34
6,TTGTAACAAAAGTACACACACATTTCTATAAATTTT [CACACA_site2772],9.11 ± 0.38
7,CATTTTATTTTCTTTGTGCACAAAAATATTTTTTCT,8.89 ± 0.44
8,AAAGTTATGATATATACACACATATAAATATTAAAT [CACACA_site6361],9.02 ± 0.45
9,TGTTCTAATTTTAATTGTACATATATACATATATAT [XGTACX_site7290],8.98 ± 0.47
10,TTTAAAAAAAAAAAAAATTTTTTTTTTTTTTTTTTA [CACACA_negctrl_site1415],7.83 ± 0.49
11,CATATATATATATGAACACACAAAAAGAATATTTCC [CACACA_site1493],9.06 ± 0.47
12,TCTATACCTATTCTTACACACATATGTATTTATATA [CACACA_site4475],9.28 ± 0.46
13,TTCTATGCATTTATAGTGCATGTAAAATATAAGATA [GTGCAC_site9466],8.38 ± 0.3
14,GTAGAAAGAAAAATTAGTACTTAAATATTATAAAAA [XGTACX_site8458],8.4 ± 0.47
15,AATTATATTTAGTATATGCACACTTTATGTTTGTTA [CACACA_site2025],9.08 ± 0.47
16,TTTTAAAAAATATAATAATATAAATATTTTATACGT [TGCATGCA_negctrl_site252],8.28 ± 0.48
17,GACTTTTTCATTTTTAGTACACATATATATTTCCCT [XGTACX_site3511],9.15 ± 0.57
18,AAAAAAAAAAAACATACACACACACTAATATTTATA [CACACA_site8038],9.6 ± 0.23
19,ATATATTTTTAATATGCACACAAGAATACATTCACA [CACACA_site914],8.99 ± 0.34
20,TTAAAAAATCACAACACACACACACCCAAAAAAAAA [CACACA_site1445],9.77 ± 0.26
21,TTTATACTTTCAAAATGTACATATATATATATATAT [XGTACX_site6241],9.36 ± 0.042
22,CTAATCATAAAATATACACACACGGATACATTAAAT [CACACA_site2685],9.47 ± 0.28
23,ATTGAAGGGAAATATATAATCATATTCAAAATAAAA [CACACA_negctrl_site728],8.57 ± 0.45

row,Sequence,gcPBM binding intensity (ln)
1,ATTTCTCTATCGTAATGTACAAAAAAAAGGGAAAAG [XGTACX_site1335],8.66 ± 0.47
2,TAATATATAATTTTATGTACATAATTATAAACCCAT [XGTACX_site919],8.64 ± 0.4
3,CATCAAAATGAAGCATGTACATAATATAAATAAATA [XGTACX_site4647],8.88 ± 0.53
4,CTTTTTACTTAATACACACACACACCCAAAAAAAAA [CACACA_site948],9.61 ± 0.2
5,AAAAAATACCAAAGGGGTACTTACACATAATACTTA [XGTACX_site2111],8.77 ± 0.48
6,TATGTATATTGAGATTGTACTTGTAATATTAAACAT [XGTACX_site3878],8.55 ± 0.4
7,TTGTATAAAATATGTAGTACAATAATATAACATTTT [XGTACX_site8607],8.66 ± 0.35
8,AATAATAAAAATATTGTGCACTTGTATATTTATTAT [GTGCAC_site9963],8.85 ± 0.4
9,GGTATTTTCACATATAGTACACAAAAATAAAATAAA [XGTACX_site2139],8.71 ± 0.44
10,ATATCAAATAATTTAGTGCACTTTTTTTTTTCTTTT [GTGCAC_site9629],8.79 ± 0.54
11,AAGGAATAAAATTTAGAAGACAATTTTATTTCAGTA [XGTACX_negctrl_site331],8.41 ± 0.52
12,ATATTAACTTTTATTACACACTCTCAACTTTTATTT [CACACA_site6176],9.01 ± 0.57
13,TCACAAATGTATTATACACACAAGTTTTCTTTAATA [CACACA_site4107],8.71 ± 0.45
14,TATATAATATAATGTAGTACATGTTTTATTTTTTAC [XGTACX_site7735],8.71 ± 0.46
15,ATTTATTTATTTTCATGTACATATGTAAATCAATAA [XGTACX_site3886],8.62 ± 0.32
16,ATAAAATACAAAGGGACACACATATGAGTCTACAAA [CACACA_site3092],9.16 ± 0.52
17,TAAACACATTATATATGTACATAATAAAAAAAAAAA [XGTACX_site7907],8.84 ± 0.52
18,AAGTTATACACATCAACACACACATACAACGTGGTG [CACACA_site8312],9.45 ± 0.4
19,CAAAATGATATGACAACACACAACCTATAGTAAGAC [CACACA_site1287],9.38 ± 0.49
20,TAATATATAATAAAGTGTACATATGCTTTATTATTA [XGTACX_site1920],8.62 ± 0.38
21,TGACGACATTTCTTATGTACTAATTTTTCTTCCTTT [XGTACX_site4391],8.78 ± 0.45
